According to PubChem BioAssay AID686978 (National Center for Advancing Translational Sciences (NCATS), 2013):
In all, about 420,000 compounds went through this assay and about 64,000 (15%) were called active. Inconclusive means that the source gave no clear call. Such entries were picked first, then a sample of the others. Calls come from the whole dose curve; as a rule, active = well fitted inhibition curve with a large enough effect; inconclusive = small, poorly fitted or top-dose-only effect; inactive = flat fitted curve, though single readings scatter. No potency is given beside an inconclusive call; the fits are too rough.

Experiment: qHTS for Inhibitors of human tyrosyl-DNA phosphodiesterase 1 (TDP1): qHTS in cells in absence of CPT; note: nearly all actives have a fitted effect of over 55% in size
Conditions: DT40 Tdp1-/- hTDP1 cells, no CPT, ATP luminescence, 48 h; activity change, negative = growth inhibition: at 46.2 µM (top of the series) unless noted
How it was run: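 Luminescent ATP content (CellTiter-Glo) served as the growth readout. Knockout chicken DT40 cells expressing human TDP1 were exposed to compounds without camptothecin for a minimum 48 hr at 37 °C.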
% is set by controls: 0 for no effect and ±100 for the full control effect; potency is the fitted concentration of half-maximal effect; tags give direction and shape of the fitted curve.

SMILES | Potency | activity change, negative = growth inhibition
C=CC1(C)CN(Cc2ccco2)S(=O)(=O)c2c(F)cccc2O1 (stereo not drawn) | inconclusive [inhibitor, single point] | –
CCOC(=O)CSc1ccc(S(=O)(=O)N(CC)CC)cc1[N+](=O)[O-] | – | inactive: 8.63%
COc1cc(C(=O)N2CCN(C)CC2)cc(OC)c1OC | – | inactive: 9.62%
Cc1ccc(N2C(=O)c3ccccc3C2C(=O)c2ccc(C)c(C)c2O)cc1 (stereo not drawn) | active: 18.4 µM | –
CC/C(C)=N/Nc1nc2c(c(=O)[nH]c(=O)n2C)n1CCc1ccccc1 | inconclusive [inhibitor, single point] | –
COCCNC(=O)/C(C#N)=C/c1c(N2CCN(C)CC2)nc2ccccn2c1=O | – | inactive: -5.84%
Cc1c(Br)c(=O)oc2c(C)c(O)ccc12 | inconclusive [inhibitor, partial curve, poor fit] | –
CCc1cccc(NC(=O)c2cc3c(=O)oc4ccc(C)cc4c3s2)c1 | inconclusive [inhibitor, partial curve, poor fit] | –
CC1=CC(C)C2(COC(c3ccc[n+](C)c3)OC2)C(C)C1 (stereo not drawn) | active: 3.66 µM | –
Cc1ccc2nc(NC(=O)CCCc3nc4ccccc4s3)sc2c1 | inconclusive [inhibitor, single point] | –
COc1ccccc1OCC(=O)Nc1ncc(C)s1 | inconclusive [inhibitor, single point] | –
Cc1cccc(C)c1NC(=O)CSc1nnc(C)n1CC1CCCO1 (stereo not drawn) | inconclusive [inhibitor, single point] | –
Cc1cc(C)c(-n2nnnc2SCC(=O)c2cccs2)c(C)c1 | inconclusive [inhibitor, single point] | –
CCN(CC)CCOc1nnc(-c2ccc(OC)cc2)c2ccccc12 | inconclusive [inhibitor, single point] | –
COc1cc([C@@H]2CC=C(C(=O)O)[C@H](c3ccc(F)cc3)N2S(=O)(=O)c2ccc(C)cc2)cc(OC)c1OC | – | inactive: 1.71%
COc1ccc(/C=C2\SC(=S)N(CCC(=O)NCCCn3ccnc3)C2=O)cc1 | active: 16.4 µM | –
CC(C)(C)n1nnnc1C(c1cccc(C(F)(F)F)c1)N1CCC(O)CC1 (stereo not drawn) | – | inactive: -16%
CCCCCCN[C@H]1CCC2C3CC=C4C[C@@H](O)CC[C@]4(C)C3CC[C@@]21C (stereo partly drawn) | inconclusive [inhibitor, partial curve, poor fit] | –
COc1ccc(OC)c([C@@H]2Nc3ccc(C(=O)O)cc3[C@@H]3C=CC[C@@H]32)c1 | inconclusive [inhibitor, single point] | –
Cc1cc(C)nc(N2CCC(C(=O)Nc3ccc4c(c3)OCO4)CC2)n1 | active: 9.2 µM | –
CC1OC2(C)OC(=N)C1(C#N)C(C#N)(C#N)C2c1ccccc1 (stereo not drawn) | – | inconclusive: -39% [inhibitor]
Cc1ccc(-c2cc(C(F)(F)F)n3ncc(C(=O)O)c3n2)cc1 | – | inconclusive: -32.2% [inhibitor]
Cc1ccc(-n2[nH]c(C)c(C=NCc3ccncc3)c2=O)cc1 | inconclusive [inhibitor, partial curve, poor fit] | –
CCOC(=O)c1oc2ccccc2c1CN1CCN(C(=O)c2ccccc2)CC1 | inconclusive [inhibitor, single point] | –
CCNC(=S)N/N=C/c1cccs1 | inconclusive [inhibitor, single point] | –

SMILES | Potency | activity change, negative = growth inhibition
Cc1cc2c(cc1C)N(C(=O)CCl)CCN2C(=O)CCl | active: 0.58 µM | –
N#Cc1ccc(OCc2nnc(SCC(=O)c3ccccc3)n2-c2ccccc2)cc1 | inconclusive [inhibitor, partial curve] | –
CCOC(=O)NC1(C(F)(F)F)NC(=O)N(c2ccc(F)cc2)C1=O (stereo not drawn) | – | inactive: -5.82%
Cc1ccc(-c2nnc(N3CCCCCC3)c3ccccc23)cc1 | active: 16.4 µM | –
Cc1nc2ccccc2n1CC(O)COCC1CC=CCC1 (stereo not drawn) | active: 10.3 µM | –
O=C1c2cc(Cl)ccc2OC2(CCNCC2)C12CC(c1ccccc1)=NO2 (stereo not drawn) | active: 16.4 µM | –
COc1ccc(N2CCN(CC(=O)Nc3nc4c(s3)CC(C)CC4)CC2)cc1 (stereo not drawn) | inconclusive [inhibitor, single point] | –
CC(=O)c1ccc(NC(=O)CCn2cccn2)cc1 | – | inactive: -0.239%
CN(C)c1ccc(NC(=O)CSc2nc(C3CC3)nc3ccccc23)cc1 | active: 18.4 µM | –
COc1ccc2c(c1)-c1c(sn(-c3ccccc3)c1=S)C(C)(C)N2 | inconclusive [inhibitor, single point] | –
CCc1cccc(NC(=O)C2CCCN2S(=O)(=O)c2ccc3nc(-c4ccccc4)[nH]c3c2)c1 (stereo not drawn) | active: 8.2 µM | –
CCOC(=O)c1cc2c(=O)n3ccccc3nc2n(Cc2ccccc2)c1=N | inconclusive [inhibitor, single point] | –
O=c1c(-c2ccc(F)cc2)nc2cnc(N3CCNCC3)nc2n1C1CC1 | inconclusive [inhibitor, single point] | –
O=C(O)C1C2C=CC3(CN(Cc4ccccn4)C(=O)C13)O2 (stereo not drawn) | – | inactive: -2.02%
COc1ccccc1CN1CCCC2(CCN(C(=O)c3csnn3)CC2)C1 | – | inactive: -7.04%
CCOC(=O)N1CCN(C(=O)CCc2c(C)nc3c(c(C)nn3-c3ccc(C)c(C)c3)c2C)CC1 | active: 16.4 µM | –
Cc1ccc(NC(=O)CN2CCCCC2)c2c1CC(C)(C)O2 | inconclusive [inhibitor, single point] | –
Cc1cc2c(cc1C)CN(c1ccccc1)C2 | inconclusive [inhibitor, single point] | –
Cc1ccc(OCCN2CCN(c3nc(NCc4ccco4)c4ccccc4n3)CC2)cc1 | active: 14.6 µM | –
CCOC(=O)c1c(NC(=O)CSc2nc3nc(C)cc(C)n3n2)sc(CC)c1C | inconclusive [inhibitor, single point] | –
CCOc1ccc(NC(=O)[C@@H](NC(=O)c2ccco2)C(C)C)cc1 | – | inactive: 3.3%
COc1ccc(Nc2nc(NCc3cccs3)nc3ccsc23)cc1OC | active: 18.4 µM | –
CCN(C[C@H]1N[C@@](Cc2ccccc2)(C(=O)OC)[C@H]2C(=O)N(Cc3ccccc3)C(=O)[C@@H]12)C(=O)Nc1ccc(Cl)cc1 | active: 18.4 µM | –
COc1ccc(/C=N/Nc2nc(=O)[nH]nc2C)cc1OC | – | inactive: 2.75%
CC(C)(C)NS(=O)(=O)c1ccc(NC(=O)C2CCCO2)cc1 (stereo not drawn) | inconclusive [inhibitor, full curve] | –

SMILES | Potency | activity change, negative = growth inhibition
CN1C(=O)Cc2cc(S(=O)(=O)NCc3ccccc3Cl)ccc21 | inconclusive [inhibitor, single point] | –
Cc1ccc(NC(=O)C2CC(=O)Nc3nncn32)cc1 (stereo not drawn) | – | inactive: -23.7%
Cc1ccc(Oc2ccc(N)cc2)cc1 | inconclusive [inhibitor, partial curve] | –
COc1ccc(COC(=O)C2=C(C)NC(=O)NC2c2ccc(O)cc2)cc1 (stereo not drawn) | inconclusive [inhibitor, partial curve] | –
O=C(c1ccc(Br)cc1)N(Cc1ccco1)c1ccccn1 | inconclusive [inhibitor, single point] | –
CCc1nc2ccc(C(=O)Nc3cc(-c4ccccc4)ccc3OC)cn2c1N(C)Cc1ccc(Cl)cc1 | active: 20.6 µM | –
O=C(O)c1cc(NC(=O)c2ccc(Cl)c([N+](=O)[O-])c2)cc(C(=O)O)c1 | – | inactive: -15.5%
COCCN1C(=O)C(=O)/C(=C(/O)c2ccc(S(=O)(=O)N3CCCCC3)cc2)C1c1ccc(OC)cc1 (stereo not drawn) | – | inactive: 8.81%
COc1ccc(N(CC(=O)N2CCCCC2)S(=O)(=O)c2ccc(OC)c(OC)c2)cc1 | – | inactive: -4.33%
Cc1ccc2oc(C(=O)N3CCC(c4nc5ccccc5s4)CC3)c(C)c2c1 | – | inactive: -27.5%
CCCc1ccc(OCc2ccc(C(=O)Nc3ccccc3C(=O)OC)o2)cc1 | inconclusive [inhibitor, single point] | –
CC(C)N1C(=O)CCC1C(=O)O (stereo not drawn) | – | inactive: -4.67%
CCC(=O)OCC(=O)c1c(N)n(Cc2ccccc2)c(=O)n(C)c1=O | inconclusive [inhibitor, partial curve] | –
CCOC(=O)Cc1csc(Nc2ccc(Cl)cc2)n1 | inconclusive [inhibitor, single point] | –
CN(C)CC(=O)N1c2ccccc2CCc2ccc(NC(=O)c3ccc(N)cc3)cc21 | – | inactive: -3.92%
COc1ccc(CN(C)C(=O)c2ccc3c(=O)n4c(nc3c2)CCC4)c(OC)c1 | inconclusive [inhibitor, single point] | –
CC1=Nc2ccccc2/C1=C/c1nc(-c2ccc(C)s2)oc1O | inconclusive [inhibitor, single point] | –
Cn1c(=O)c2c(nc(N3CCOCC3)n2Cc2ccccc2Cl)n(C)c1=O | inconclusive [inhibitor, single point] | –
Cc1ccc(S(=O)(=O)N2C[C@@H](C)[C@]3(C2)[C@H](O)[C@H](OC(=O)Nc2cccs2)C[C@H]2C(=O)N(c4ccccc4)C(=O)[C@H]23)cc1 | active: 16.4 µM | –
CCC(C(=O)NC1CCCCC1)N(Cc1cccs1)C(=O)CCC(=O)Nc1cc(C)on1 (stereo not drawn) | inconclusive [inhibitor, single point] | –
Cc1[nH]c(C)c(S(=O)(=O)NCCc2ccc(S(N)(=O)=O)cc2)c1C(=O)N1CCCC1 | inconclusive [inhibitor, single point] | –
CN1CCN(C(=S)NC(=O)c2ccc(-c3ccccc3)cc2)CC1 | inconclusive [inhibitor, single point] | –
O=C1Nc2ccccc2C(O)(C(=O)N2CCCCC2)N1c1ccccc1 (stereo not drawn) | – | inconclusive: -36.4% [inhibitor]
